According to PubChem BioAssay (NCI):
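How tested: cells in 96-well plates exposed to compound for 48 hours at five concentrations. Abbreviation: GI50, concentration required for 50% inhibition of growth. TGI marks complete inhibition of growth.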

What follows are molecules tested on NCI-H322M lung (assay: DTP human tumour cell line panel, 48 h).
Work on `O=C1Nc2cc(-c3ccc(O)cc3)ccc2/C1=C/c1ccc[nH]1` yielded a GI50 of 0.246 µM and a TGI of 3.73 µM. With `CC(C)(C)c1cc(C#N)c2c(c1)C(=O)OC2(c1ccccc1)c1ccccc1C#N` (stereo unspecified) the TGI was over 100 µM. For `OCC(O)C(OC1OC(CO)C(O)C(O)C1O)c1nn(-c2ccc(Cl)cc2)c2nc3cc(Cl)c(Cl)cc3nc12` (stereo unspecified), the TGI was over 100 µM. `O=C(O)c1ccc(C2=Nc3cccc4cccc(c34)N2)cc1` was tested, and the TGI was over 100 µM. `Cn1c(=S)c2[nH]c(SCc3cccnc3)nc2n(C)c1=O` gave a TGI of over 100 µM. `O=C(C[n+]1ccn(CC(OCc2ccc(Cl)cc2Cl)c2ccc(Cl)cc2Cl)c1)c1ccc(F)cc1` (stereo unspecified) showed a GI50 of 1.32 µM and a TGI of 2.7 µM. `CN(C(=O)C12C3(C(=O)O)C4C5(C(=O)O)C3C1(C(=O)O)C5C42C(=O)O)C(C)(C)C` (stereo unspecified) gave a TGI of over 100 µM. Molecule `Cc1cc(=O)[nH]c(S(=O)(=O)NC(=O)Nc2cccc(Cl)c2)n1` has a TGI of over 100 µM. With `COc1ccccc1CNC(=O)/C=C/c1ccc(O)c(O)c1` the GI50 was over 100 µM and the TGI was over 100 µM. `COc1ccc(-n2nnc3c(C#N)c(C)c(-c4ccccc4)n3c2=O)cc1` was tested, and the TGI was over 100 µM. Work on `O=C(CC(=O)c1cccc2ccccc12)C(=O)Nc1nccs1` yielded a TGI of over 100 µM. For `COc1ccc(C2S/C(=C\c3ccc([N+](=O)[O-])cc3)C(=O)N2NC(=O)Cc2ccccc2)cc1` (stereo unspecified), the TGI was over 100 µM. Work on `CC(O)/C=C/C1OC(=O)CC1Nc1ccc(C=O)cc1` (stereo unspecified) yielded a TGI of over 100 µM. For `CCOC1Oc2ccccc2-c2nc(N)ncc21` (stereo unspecified), the TGI was over 100 µM. Work on `Cc1c(-c2cc(-c3ccccc3)n[nH]c2=O)c2ccccc2n1C` yielded a TGI of over 100 µM. For `O=C(O)C(C(F)(F)F)C(F)(F)F` (tested in a mixture with another compound), the TGI was over 100 µM. `CN(CCN1C(=O)c2cccc3cccc(c23)C1=O)CCN1C(=O)c2cccc3cccc(c23)C1=O` gave a TGI of 85.1 µM. Work on `CC(C)(C)[Si](C)(C)O/N=C\c1cccc(O[Si](C)(C)C(C)(C)C)c1` yielded a TGI of 29.8 µM. `OCCCN=C1N=C(Cl)/C(=C\c2ccccc2)N1` was tested, and the TGI was over 100 µM. With `CCC1=C(CC2NCCc3cc(OC)c(OC)cc32)CC2c3ccccc3CCN2C1` (stereo unspecified) the TGI was 97.8 µM. Work on `CCOc1cc2cnc3c4cc(OC)c(OC)cc4ccc3c2cc1OC` yielded a TGI of over 100 µM. `COc1ccccc1C(=O)Nc1ccc(Cl)c(C(=O)OC(C)C)c1` was tested, and the TGI was over 100 µM. `CCCCc1n(Cc2ccc3ccccc3n2)cc[n+]1Cc1ccc2ccccc2c1` gave a GI50 of 2.3 µM and a TGI of 10 µM. `CC1=C(C(=O)NCc2ccccc2)C(c2ccc(N(C)C)cc2)C(C(=O)NCc2ccccc2)=C(C)N1` gave a TGI of over 100 µM. In the case of `Fc1c(F)c(F)c(CSc2nc3ccccc3[nH]2)c(F)c1F`, the TGI is reported as over 100 µM. `CC(C)C(=O)CC(c1ccc(Br)cc1)N1N=C(C(C)C)CC1c1ccc(Br)cc1` (stereo unspecified) showed a TGI of over 100 µM. `CCCC(=O)Nc1cc(/C=C/C(=O)N2CC(CCl)c3c2cc(OC(C)=O)c2[nH]cc(C)c32)n(C)c1` (stereo unspecified) was tested, and the TGI was 0.00171 µM. `N#CC1=C(N)Oc2c(ccc3cccnc23)C1c1ccccc1` (stereo unspecified) gave a TGI of over 100 µM. With `CC/C(=N/O)C(C)C(=O)CCC(=O)Nc1ccc(Cl)cc1` (stereo unspecified) the TGI was over 100 µM. In the case of `CC(C)C1COC(C(C)(C)C2=N[C@@H](C(C)C)CO2)=N1` (stereo partly specified), the TGI is reported as over 100 µM. `COc1ccc(/C=N/NC(=O)CSc2nc(-c3ccccc3)c(-c3ccccc3)[nH]2)cc1OC` gave a TGI of 91.4 µM. Work on `COC(=O)C(Cc1ccccc1)NP(=O)(O)OCC1OC(n2ccc(N)nc2=O)C(O)C1O` (stereo unspecified) yielded a TGI of over 100 µM. `COc1ccc([C@H]2[C@@H]3CCc4ccccc4C3=NN2C(N)=S)cc1OC` was tested, and the TGI was over 100 µM. `C=C(C)C1Cc2cc(C(C)=O)ccc2O1` (stereo unspecified) was tested, and the TGI was over 100 µM. Molecule `O=[N+]([O-])c1ccc2nc(/C=C(\O)c3ccccc3)c(NC34CC5CC(CC(C5)C3)C4)nc2c1` has a TGI of over 10 µM. In the case of `CC(C)(C)COS(=O)OCC(C)(C)C`, the TGI is reported as over 100 µM. For `C#CCn1c2c(c3ccccc3c1=O)C(=O)c1ccccc1-2`, the TGI was 62.6 µM. Work on `O=C(/C=C/c1cc(O)ccc1O)c1ccc(Cl)cc1` yielded a GI50 of 34.2 µM and a TGI of over 100 µM. `Cc1ccc(C2SCc3nc4ccccc4n32)cc1` (stereo unspecified) gave a TGI of over 100 µM. `N#Cc1n[nH]n(-c2ccccc2)c1=O` gave a TGI of over 100 µM. Work on `N#CC(C#N)[C@@H]1CCC=C(Sc2ccccc2)[C@H]1Sc1ccccc1` yielded a TGI of 18.9 µM. `O=S(C(c1ccccc1)=P(c1ccccc1)(c1ccccc1)c1ccccc1)c1ccc(Cl)cc1` (stereo unspecified) gave a TGI of over 100 µM. Work on `CCCCCCCCCCCCCCCCCCOC(COP(=O)(O)OCC1OC(n2cc(F)c(=O)[nH]c2=O)CC1O)COP(=O)(O)OCC1OC(n2ccc(N)nc2=O)C(O)C1O` (stereo unspecified) yielded a TGI of over 100 µM. `CN(C)c1ccc(/C=C2\C[C@H]3[C@@H]4CC=C5C[C@@H](O)CC[C@]5(C)[C@H]4CC[C@]3(C)[C@H]2O)cc1` was tested, and the TGI was 29 µM. `CCOC(=O)/C=C/C1=C(Br)[C@@]2(C)CC[C@@H]3c4ccc(O)cc4CC[C@H]3[C@@H]2C1` gave a TGI of 28.9 µM. For `NC1=C(/C(N)=N/O)C(c2ccccc2)c2ccc3ccccc3c2O1` (stereo unspecified), the GI50 was 0.638 µM and the TGI was over 100 µM. In the case of `O=C(O)c1ccc2[nH]c(=O)oc2c1`, the TGI is reported as over 100 µM. Molecule `Clc1ccc2c(NCCNc3nc(N4CCCCC4)nc4ccccc34)ccnc2c1` has a GI50 of 2.37 µM and a TGI of 7.09 µM. Molecule `CCC12CN(C(=O)OC)C3C(Br)C1CCC(=O)C32` (stereo unspecified) has a TGI of over 100 µM. For `Oc1c(O)c(Cc2ccccc2)c(Cc2ccccc2)c(Cc2ccccc2)c1Cc1ccccc1`, the TGI was over 10 µM. `C=CCc1cccc(/C(O)=C/C(=O)/C=C/c2ccccc2Cl)c1O` was tested, and the TGI was 52.6 µM. `C=CCC(O)c1cc(OC)ccc1OC` (stereo unspecified) showed a TGI of over 100 µM. `CN(CCCNC(=O)c1nn(-c2ccccc2)c2c1Cc1ccccc1-2)CCCNC(=O)c1nn(-c2ccccc2)c2c1Cc1ccccc1-2` gave a TGI of 3.22 µM. `CN(C)C(=S)/N=C(\N)N(C)C` gave a TGI of over 100 µM. `COc1ccc(/C=C2/C(=O)N(/C=C3\C(=O)Oc4ccccc4C3=O)C(=NC(C)=O)N2C)cc1OC` showed a TGI of over 100 µM. Molecule `CC12OC(C(=O)C13CCC3)C1C(=O)c3c(O)ccc(O)c3C(=O)C12` (stereo unspecified) has a GI50 of 8.66 µM and a TGI of 28.7 µM. Molecule `COc1cc2ccnc(-c3n[nH]c4cc(OC)c(OC)cc34)c2cc1OC` has a TGI of over 100 µM. With `O=c1[nH]nc(Cc2ccc(Cl)cc2)n1CCO` the TGI was over 100 µM. Molecule `COc1ccc(C(=O)c2cc(C)c(OC)c(C)c2)c(OC)c1OC(=O)C(Cl)Cl` has a GI50 of 0.0697 µM and a TGI of over 100 µM. With `COC(=O)[C@]12CC[C@@H](C)[C@H](C)[C@@H]1C1=CC[C@@H]3[C@@]4(C)C(C=O)=C[C@@](C)(COC(=O)c5ccco5)C4=CC[C@@]3(C)[C@]1(C)CC2` the GI50 was 5.15 µM and the TGI was 53.4 µM. `Cn1c(=O)c2[nH]c(CCS)nc2n(C)c1=O` gave a TGI of over 100 µM. Work on `Cc1nc2sc(C(=O)Nc3cccc(Cl)c3C)c(N)c2cc1C(O)c1ccccc1` (stereo unspecified) yielded a GI50 of 0.0685 µM and a TGI of 35.1 µM. Work on `COc1ccc(-c2cncn2-c2ccc(-c3nc4cc(OC)c(OC)c(OC)c4s3)cc2)cc1N` yielded a GI50 of 25.7 µM and a TGI of over 100 µM. `C[C@]12O[C@@]3(C)O[C@@]3(C)[C@]3(C)O[C@]3(C)[C@@]1(C)O2` was tested, and the TGI was over 100 µM. `CC(C)CCCC(C)[C@H]1CCC2C3CC=C4C[C@@H](OC(=O)CC(CC(=O)[O-])C(=O)[O-])CC[C@]4(C)C3CC[C@@]21C.N.N.[Pt+4]` (stereo partly specified) showed a GI50 of over 100 µM and a TGI of over 100 µM. `Cc1cc(=O)[nH]c(Sc2ccc([N+](=O)[O-])cc2[N+](=O)[O-])n1` showed a TGI of over 92.7 µM. Work on `CCN(CC)CCOc1ccccc1-n1c(C)ccc1-c1ccccc1` yielded a GI50 of 17.3 µM and a TGI of 32 µM. For `CNC(=O)OCC1=C(COC(=O)NC)CN(c2ccc(OC)cc2)C1`, the TGI was over 100 µM. Work on `COc1ccccc1N1CCN(CC(O)Cn2c(=O)c3c(OC)nc(C)cc3c(=O)n2-c2ccccc2)CC1` (stereo unspecified) yielded a GI50 of over 100 µM and a TGI of over 100 µM. `CCN1C(=O)N[C@H]2[C@@H]3NC(=O)c4ccc(Cl)n4[C@@H]3C[C@]21O` was tested, and the GI50 was 0.795 µM and the TGI was 8.1 µM.
